Assay results taken from PubChem BioAssay AID1346428 (National Center for Advancing Translational Sciences (NCATS), 2018).
Hit rate of the full screen: of about 48,000 compounds, about 1,200 (2.5%) were called active. About 2% were inconclusive and are not listed.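 The calls were made as follows: active = activation of at least 60% and not above a set upper limit (about 1 call in 100 departs from these limits); inconclusive = activation of 40% to 60%, or above that upper limit; inactive = activation under 40%.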 The list shows a part of the results.

Target: Probable G-protein coupled receptor 32 (Homo sapiens) (UniProt O75388)
Experiment: qHTS for Agonists of Human Resolvin D1 Receptor DRV1; also: 0% is about no effect
Conditions: CHO-K1 GPR32 beta-arrestin PathHunter luminescence, 90 min; at 76.9 µM; hits give high values; zero percent set by DMSO-only wells
Method in brief: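 Engineered CHO-K1 line co-expressing GPR32-ProLink and EA-beta-arrestin. Compound treatment lasted 90 min at 37 °C. Luminescence was recorded after 1 h with substrate at ambient temperature, relative to DMSO basal wells.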

Chain of UniProt O75388 (O75388 whole entry, looked up): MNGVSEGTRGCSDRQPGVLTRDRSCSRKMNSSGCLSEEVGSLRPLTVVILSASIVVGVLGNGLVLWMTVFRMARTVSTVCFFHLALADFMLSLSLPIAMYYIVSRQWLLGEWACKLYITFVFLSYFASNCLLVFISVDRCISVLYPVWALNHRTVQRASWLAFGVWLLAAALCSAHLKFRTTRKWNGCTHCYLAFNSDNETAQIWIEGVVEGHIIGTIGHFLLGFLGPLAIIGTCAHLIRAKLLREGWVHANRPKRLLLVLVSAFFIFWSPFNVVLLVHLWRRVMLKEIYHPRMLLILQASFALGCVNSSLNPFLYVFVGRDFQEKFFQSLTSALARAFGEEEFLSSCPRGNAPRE

Q: With `Cn1cnnc1SCC(=O)Nc1cc(C(=O)O)cc(C(=O)O)c1` as the compound, how does the activation read?
A: inactive: 0.759%

Q: `COc1ccc(-c2ccc(CNc3ccc4[nH]c(=O)[nH]c4c3)o2)cc1Cl` was tested. Which activation did it give?
A: inactive: 22%

Q: For `Cc1nn(CC(=O)NC2CCCCC2)c(=O)c2cc3cc(F)ccc3n12`, which activation is on record?
A: inactive: 0.621%

Q: `CCc1ccc(Oc2nc3c(C)cccn3c(=O)c2/C=C(\C#N)c2nc3ccccc3[nH]2)cc1` was tested. Which activation did it give?
A: inactive: 30%

Q: Which activation does the source give for `Nc1ccc(-c2nc3ccc(-c4nc5ccc(N)cc5[nH]4)cc3[nH]2)cc1` here?
A: inactive: 5.72%

Q: For `Cc1cc(=O)n2[nH]c(NCc3ccc(F)cc3)nc2n1`, which activation is on record?
A: inactive: 14%

Q: With `COc1ccc(S(=O)(=O)c2c(Nc3ccc(C)cc3)sc(C(=O)c3ccc(C)cc3)c2N)cc1` as the compound, how does the activation read?
A: inactive: -28.6%

Q: How did the activation turn out when `Cc1ccc(-n2nc(C)c3c(C)cc(=O)n(CC(=O)Nc4ccc(Br)cc4F)c32)cc1` was run?
A: inactive: 7.49%

Q: `Cc1cccc(C(=O)NCC(c2ccc3c(c2)OCO3)N2CCN(c3ccccc3F)CC2)c1` (stereo not given) was tested. Which activation did it give?
A: inactive: -27.7%

Q: With `COc1cc(-c2noc(CSc3nc(-c4ccccc4)cc(=O)[nH]3)n2)cc(OC)c1OC` as the compound, how does the activation read?
A: inactive: -12.9%

Q: For `CCOC(=O)CSc1nc2ccc(NC(=O)c3ccc(F)cc3)cc2s1`, which activation is on record?
A: inactive: 40%

Q: For `Cc1ccc(Cl)cc1NC(=O)Nc1c(C)n(C)n(-c2ccccc2)c1=O`, which activation is on record?
A: inactive: -0.788%

Q: `O=C(CCCn1c(=O)c2cccn2c2ccc(F)cc21)NCCc1ccccc1` was tested. Which activation did it give?
A: inactive: -18.9%

Q: Which activation does the source give for `COc1ccc(-c2noc(-c3ccc(NCc4ccco4)c([N+](=O)[O-])c3)n2)cc1` here?
A: inactive: 45.8%

Q: For `Cc1ccc(CSCC(=O)NCc2ccc(F)cc2)cc1`, which activation is on record?
A: inactive: -20.1%

Q: `CCOc1ccccc1Nc1nc(-c2cccc(Cl)c2)c2c(n1)-c1ccccc1OC2` was tested. Which activation did it give?
A: inactive: -6.1%

Q: With `COc1ccc(NC(=O)Cn2cc(S(=O)(=O)c3ccc(C)cc3)c(=O)c3ccccc32)cc1OC` as the compound, how does the activation read?
A: inactive: -4.56%

Q: Which activation does the source give for `CCc1nnc(SCC(=O)N(C)c2ccccc2)c2cc3sccc3n12` here?
A: inactive: -18.5%

Q: Which activation does the source give for `CCC(=O)c1ccc(O)cc1` here?
A: inactive: 4.59%

Q: With `CCOc1ccc(C(=O)Nc2nnc(SCc3cc(=O)c4cc(C)ccc4[nH]3)s2)cc1` as the compound, how does the activation read?
A: inactive: 12.1%

Q: Which activation does the source give for `Cc1nn(-c2ccccc2)c(OC(=O)c2ccccc2F)c1S(=O)(=O)c1ccccc1` here?
A: inactive: 14.7%

Q: With `COc1cccc2sc(N(Cc3cccnc3)C(=O)COc3ccccc3)nc12` as the compound, how does the activation read?
A: inactive: -4.04%

Q: `Cc1sc2c(c1C)c(=O)n(CCc1ccccc1)c(=O)n2Cc1ccccc1Cl` was tested. Which activation did it give?
A: inactive: 9.94%

Q: For `Cc1ccc(C)c(NC(=O)CSc2nc(=O)n(CCN(C)C)c3c2CCC3)c1`, which activation is on record?
A: inactive: -14.8%

Q: For `COc1cc(CN(C(=O)c2ccccc2[N+](=O)[O-])c2ccccn2)cc(OC)c1OC`, which activation is on record?
A: inactive: 10.7%

Q: `COc1cccc(N2CCN(C(=O)c3cccc(NC(=O)c4nsc5ccccc45)c3)CC2)c1` was tested. Which activation did it give?
A: inactive: -14.8%

Q: With `CCN(CC)S(=O)(=O)c1ccc2c(c1)nc(CN(C)C(=O)c1cccc(Cl)c1)n2C` as the compound, how does the activation read?
A: inactive: -6.72%

Q: For `COc1ccc(CCNC(=O)C2=C(C)C(=O)OC23CCCCC3)c(OC)c1OC`, which activation is on record?
A: inactive: -18.1%

Q: With `CC1CCN(S(=O)(=O)c2ccc3c(c2)N(CC(=O)NCCCN2CCCCC2C)C(=O)CS3)CC1` (stereo not given) as the compound, how does the activation read?
A: inactive: -12.6%

Q: For `N#Cc1ccccc1NC(=O)c1cc2c(=O)n3ccccc3nc2s1`, which activation is on record?
A: inactive: 6.11%

Q: With `CCn1c(=O)c2cc(C(=O)N3CCN(c4cccc(Cl)c4)CC3)sc2c2ccccc21` as the compound, how does the activation read?
A: inactive: -3%

Q: For `COc1cc(Cl)c(C)cc1NC(=O)c1cc(CN2CCOCC2)on1`, which activation is on record?
A: inactive: -21.2%

Q: `COc1ccc(OC)c(CNC(=O)C2CCN(S(=O)(=O)c3cn(C)cn3)CC2)c1` was tested. Which activation did it give?
A: inactive: -11.3%

Q: How did the activation turn out when `CC1CCCN(Cc2c(O)ccc3c(=O)c(Oc4ccccc4Cl)c(C(F)(F)F)oc23)C1` (stereo not given) was run?
A: inactive: 0.321%

Q: `Cc1ccc(S(=O)(=O)c2cn(Cc3ccccc3F)c3cc4c(cc3c2=O)OCO4)cc1` was tested. Which activation did it give?
A: inactive: -7.79%

Q: `Cc1cc(NC(=O)c2ccc3c(c2)N(Cc2cccc(Cl)c2)C(=O)c2ccccc2S3=O)ccc1Br` (stereo not given) was tested. Which activation did it give?
A: inactive: -6.01%

Q: `CCc1ccccc1NC(=O)Nc1cc(C(=O)NCc2ccc(C(C)C)cc2)ccc1N1CCCC1` was tested. Which activation did it give?
A: inactive: -22.8%

Q: With `CCc1ccc(NC(=O)CCS(=O)(=O)c2ccc3c(c2)CCN3C(C)=O)cc1` as the compound, how does the activation read?
A: inactive: -6.81%

Q: How did the activation turn out when `CCC1CN(S(=O)(=O)c2cc(-c3cc(C)no3)ccc2OC)c2cc(C)ccc2O1` (stereo not given) was run?
A: inactive: -29.5%

Q: For `COc1ccccc1NC(=O)CCn1cnc2ccccc2c1=O`, which activation is on record?
A: inactive: -10.9%

Q: With `Cc1ccc(Cl)cc1N1CCN(C(=O)C2CCCN(S(=O)(=O)c3ccc(Br)s3)C2)CC1` (stereo not given) as the compound, how does the activation read?
A: inactive: -2.06%

Q: With `CN(C(=O)c1cc2c(=O)oc3ccccc3c2s1)c1ccc(F)cc1` as the compound, how does the activation read?
A: inactive: -8.31%

Q: `CCOc1ccc(NC(=O)CSc2nccn2-c2cccc(C)c2C)cc1` was tested. Which activation did it give?
A: inactive: 22.9%

Q: For `CCOc1ccccc1CNC(=O)c1cc2c(=O)n(Cc3ccccc3)ccc2nc1C`, which activation is on record?
A: inactive: 0%

Q: How did the activation turn out when `CC(=O)N1CCCc2cc(S(=O)(=O)N3CCCCC3)ccc21` was run?
A: inactive: 1.85%

Q: For `Oc1ccc(Cl)c2cccnc12`, which activation is on record?
A: inactive: -64.3%

Q: With `Cc1ccc2nc(-c3ccc(Cl)c(NC(=O)c4cccnc4)c3)oc2c1` as the compound, how does the activation read?
A: inactive: 5.37%

Q: With `CCCCn1c2ccc(F)cc2c2nnc(SCCN3CCCCC3)nc21` as the compound, how does the activation read?
A: inactive: 2.09%

Q: With `CCOC(=O)C1CCN(S(=O)(=O)c2cc(-c3onc(C)c3C)ccc2OC)CC1` as the compound, how does the activation read?
A: inactive: -0.554%

Q: `Cc1ccc(OCC(=O)NCC(=O)OCc2cc(=O)n3nc(C)sc3n2)cc1` was tested. Which activation did it give?
A: inactive: -6.94%

Q: Which activation does the source give for `O=S(=O)(NCC(c1ccco1)S(=O)(=O)c1cccs1)c1ccc(F)c(C(F)(F)F)c1` (stereo not given) here?
A: inactive: -11.4%

Q: Which activation does the source give for `Cc1ccc(CNC(=O)c2nc(SCc3ccc(C)cc3)ncc2Cl)cc1` here?
A: inactive: 3.45%

Q: `COc1ccc(CCNC(=O)CSc2ncc3c(n2)-c2cc(Cl)ccc2N(Cc2ccccc2)S3(=O)=O)cc1OC` was tested. Which activation did it give?
A: inactive: 28.4%

Q: For `COc1ccc(CNC(=O)c2ccc3c(c2)N(Cc2cccc(Cl)c2)C(=O)c2ccccc2S3)c(OC)c1`, which activation is on record?
A: inactive: -16.4%

Q: With `CCc1ccccc1NC(=O)Cn1c(=O)c2cccn2c2ccc(F)cc21` as the compound, how does the activation read?
A: inactive: -17.8%

Q: For `CC(C)c1ccc(NC(=O)CSC2=Nc3ccccc3C3=NC(CC(=O)NCc4ccc(F)cc4)C(=O)N23)cc1` (stereo not given), which activation is on record?
A: inactive: 9.42%

Q: Which activation does the source give for `COCCCNC(=O)CCn1c(=O)c2ccccc2n(CC(=O)Nc2c(C)cc(C)cc2C)c1=O` here?
A: inactive: 11.2%

Q: For `CC(C)c1ccc(OC(=O)c2cc(-c3ccc4c(c3)OCCO4)on2)cc1`, which activation is on record?
A: inactive: -10.2%

Q: How did the activation turn out when `Cc1cccn2c(Nc3ccccc3)c(-c3ccc(N4CCOCC4)cc3)nc12` was run?
A: inactive: -32%

Q: With `Cc1ccc(-n2c(=O)c3cccnc3n2CC(=O)Nc2cccc(C)c2C)cc1` as the compound, how does the activation read?
A: inactive: -13.2%

Q: With `Cc1ccccc1-n1c2nc(=O)[nH]c(=O)c-2cc2c(Cl)cccc21` as the compound, how does the activation read?
A: inactive: 11.8%

Q: For `CCOC(=O)c1c(C)[nH]c(C)c1S(=O)(=O)N1CCCC(C(=O)Nc2ccc(OC)c(OC)c2)C1` (stereo not given), which activation is on record?
A: inactive: -8.03%

Q: Which activation does the source give for `O=c1cc2nc(-c3ccccc3F)nc(SCc3ccc(Br)cc3)n2[nH]1` here?
A: active: 108%

Q: For `Cc1cccc(Cn2c(SCc3ccc(C(=O)NCc4cccs4)cc3)nc3cccnc32)c1`, which activation is on record?
A: inactive: -8.34%

Q: How did the activation turn out when `Cc1ccc(-n2ccnc(NCCc3ccccc3)c2=O)cc1C` was run?
A: inactive: 15.9%

Q: How did the activation turn out when `COc1ccc(NC(=O)CSc2nnc(-c3nonc3NC(C)=O)n2C)cc1Cl` was run?
A: inactive: 0.487%

Q: How did the activation turn out when `COCCCN1C(=O)c2[nH]nc(-c3ccccc3O)c2C1c1ccc(OC)cc1` (stereo not given) was run?
A: inactive: -12.5%

Q: How did the activation turn out when `COC(=O)c1cc(C)nc2c1c(=O)nc(SCc1cccc(C(F)(F)F)c1)n2C1CC1` was run?
A: inactive: -19.9%

Q: How did the activation turn out when `COc1ccc(Cl)cc1NC(=O)COC(=O)CC(C)(C)CC1=NS(=O)(=O)c2ccccc2N1` was run?
A: inactive: 36.7%

Q: How did the activation turn out when `Cc1c(Cl)cccc1NC(=O)CCn1cnnn1` was run?
A: inactive: -1.25%

Q: `CCN(CC)CCCNC(=O)C(C)n1nc(C)n2c(cc3occc32)c1=O` (stereo not given) was tested. Which activation did it give?
A: inactive: 3.99%

Q: For `CC(C)c1ccc(NC(=O)c2cc(S(=O)(=O)NC3CCCCC3)ccc2F)cc1`, which activation is on record?
A: inactive: -12.2%

Q: With `COC(=O)c1ccccc1NC(=O)CN(c1ccc(Cl)cc1)S(=O)(=O)c1ccc(OC)cc1` as the compound, how does the activation read?
A: inactive: -6.9%

Q: For `COc1ccc(CCNC(=O)Cn2c(=O)nc(-c3ccccc3F)c3cc(Cl)ccc32)cc1OC`, which activation is on record?
A: inactive: 0.783%

Q: With `O=C(C1CCC(CNS(=O)(=O)c2cccs2)CC1)N1CCN(c2ccc(Cl)cc2)CC1` (stereo not given) as the compound, how does the activation read?
A: inactive: 6.22%

Q: For `Cc1ccc2[nH]c(CSc3nnc(C)s3)cc(=O)c2c1`, which activation is on record?
A: inactive: 0.757%

Q: With `CCOc1ccccc1NC(=O)C1CCN(S(=O)(=O)c2cccc3nonc23)CC1` as the compound, how does the activation read?
A: inactive: -24.2%

Q: With `O=c1ccc2ccc(O)c(O)c2o1` as the compound, how does the activation read?
A: inactive: 12.4%

Q: For `COc1ccc(N2CCN(c3ncnc4onc(C)c34)CC2)cc1`, which activation is on record?
A: inactive: 16.8%

Q: Which activation does the source give for `O=C(Nc1cc(-c2ccc(F)c(F)c2)no1)c1ccccc1F` here?
A: inactive: 0.891%

Q: For `Cc1cccc(N2CCN(C(=O)C3CCCN(C(=O)c4cc5sccc5n4C)C3)CC2)c1C` (stereo not given), which activation is on record?
A: inactive: -21.2%

Q: How did the activation turn out when `CCC1CN(C(=O)C2CCN(S(=O)(=O)c3c(C)noc3/C=C/c3ccc(C)cc3)CC2)c2cc(C)ccc2O1` (stereo not given) was run?
A: inactive: -23.7%

Q: For `CCOc1ccc(CCNC(=O)Cn2ccc3cc(S(=O)(=O)N4CCCCCC4)ccc32)cc1`, which activation is on record?
A: inactive: -5.19%

Q: For `CC1=C(C(=O)Nc2ccc(F)cc2)C(c2ccc(N(C)C)cc2)NC(=O)N1` (stereo not given), which activation is on record?
A: inactive: -7.17%

Q: With `COCCNC(=O)CCn1c(=O)[nH]c2cc(OC)c(OC)cc2c1=O` as the compound, how does the activation read?
A: inactive: -2.21%
